Results on 50 sequences are retold here after the supplement of paper PMC12645437, “Orthogonal IMiD-Degron Pairs Induce Selective Protein Degradation in Cells” (ACS Chemical Biology, 2025).

The list shows a part of the results.
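Also: jurkat cells carrying a lentiviral library of mutant zinc finger degrons fused to EGFP plus mCherry, mCherry+ cells FACS sorted, degron abundance counted by next-generation sequencing.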

The assay concerns the target no compound (DMSO). In words: log2 fold change of degron read counts, EGFP-low vs EGFP+ sorted cells; higher = lower degron-EGFP level without compound (poor expression or instability). The settings on record: compound: DMSO control; 18 h.
Turning to LQCPICGFTCTQKGNLLRHIKL, the “log2 fold change of degron read counts” value was determined as 0.59.

Regarding FGCSVCGHSFTQKGNLLRHIKL, the “log2 fold change of degron read counts” value is -0.455.

On to FMCNQCGRWFTQKGNLLRHIKL, for which the “log2 fold change of degron read counts” value came to 0.67.

With FMCEQCGANFTQKGNLLRHIKL, the “log2 fold change of degron read counts” value was -1.5.

For the sequence FQCEICGRIFTQKGNLLRHIKL, the “log2 fold change of degron read counts” value was -1.72.

Regarding FLCDQCGAKFTQKGNLLRHIKL, the “log2 fold change of degron read counts” value is -1.47.

Consider FICEVCGAQFTQKGNLLRHIKL, for which the “log2 fold change of degron read counts” value is -2.31.

On to FVCEQCGAMFTQKGNLLRHIKL, for which the “log2 fold change of degron read counts” value is -1.09.

Turning to FVCEICGAKFTQKGNLLRHIKL, the “log2 fold change of degron read counts” value is -2.13.

In the case of FQCDICGASFTQKGNLLRHIKL, the “log2 fold change of degron read counts” value was -1.92.

Turning to FRCNICGATFTQKGNLLRHIKL, the “log2 fold change of degron read counts” value was -0.588.

Turning to FACEVCGACFTQKGNLLRHIKL, the “log2 fold change of degron read counts” value is -1.75.

As for FRCPQCGAAFTQKGNLLRHIKL, the “log2 fold change of degron read counts” value is -0.276.

In the case of FACNQCGHVFTQKGNLLRHIKL, the “log2 fold change of degron read counts” value is -0.216.

Take FACSVCGHLFTQKGNLLRHIKL: the “log2 fold change of degron read counts” value worked out at 0.406.

In the case of FNCPICGRDFTQKGNLLRHIKL, the “log2 fold change of degron read counts” value was -0.391.

For the sequence FKCNICGAGFTQKGNLLRHIKL, the “log2 fold change of degron read counts” value was -0.93.

In the case of FYCNQCGAVFTQKGNLLRHIKL, the “log2 fold change of degron read counts” value was found to be 0.289.

With FLCPICGRIFTQKGNLLRHIKL, the “log2 fold change of degron read counts” value was 1.02.

For FKCDICGAKFTQKGNLLRHIKL, the “log2 fold change of degron read counts” value is -1.85.

For the sequence FQCEICGRNFTQKGNLLRHIKL, the “log2 fold change of degron read counts” value was -0.946.

As for FVCEICGHLFTQKGNLLRHIKL, the “log2 fold change of degron read counts” value is -0.789.

FNCPICGRAFTQKGNLLRHIKL: the “log2 fold change of degron read counts” value was -1.05.

Consider LDCEICGFNCTQKGNLLRHIKL, for which the “log2 fold change of degron read counts” value was -0.125.

In the case of FSCPVCGAHFTQKGNLLRHIKL, the “log2 fold change of degron read counts” value was -0.254.

Regarding FECPQCGARFTQKGNLLRHIKL, the “log2 fold change of degron read counts” value is -0.0938.

Consider FQCEICGRAFTQKGNLLRHIKL, for which the “log2 fold change of degron read counts” value was -1.39.

In the case of FNCEICGHFFTQKGNLLRHIKL, the “log2 fold change of degron read counts” value came to 0.0129.

On to FHCNVCGAKFTQKGNLLRHIKL, for which the “log2 fold change of degron read counts” value was -0.413.

Regarding FGCNQCGAQFTQKGNLLRHIKL, the “log2 fold change of degron read counts” value was -0.535.

With FMCPICGHHFTQKGNLLRHIKL, the “log2 fold change of degron read counts” value was -0.215.

With LSCPICGFHCTQKGNLLRHIKL, the “log2 fold change of degron read counts” value is 0.814.

For FRCPQCGAQFTQKGNLLRHIKL, the “log2 fold change of degron read counts” value is -0.33.

For the sequence FECNQCGADFTQKGNLLRHIKL, the “log2 fold change of degron read counts” value was -1.87.

Turning to FNCPICGRHFTQKGNLLRHIKL, the “log2 fold change of degron read counts” value was -0.435.

Consider FGCNQCGHLFTQKGNLLRHIKL, for which the “log2 fold change of degron read counts” value stood at 1.27.

On to FYCEICGRAFTQKGNLLRHIKL, for which the “log2 fold change of degron read counts” value is -1.31.

Turning to FMCDICGAPFTQKGNLLRHIKL, the “log2 fold change of degron read counts” value is -1.06.

Take FKCNQCGAIFTQKGNLLRHIKL: the “log2 fold change of degron read counts” value was -0.467.

FICNQCGRMFTQKGNLLRHIKL: the “log2 fold change of degron read counts” value was -0.534.

With FWCPVCGAKFTQKGNLLRHIKL, the “log2 fold change of degron read counts” value is -0.321.

In the case of FYCPICGRVFTQKGNLLRHIKL, the “log2 fold change of degron read counts” value is -1.63.

For the sequence FQCNQCGAEFTQKGNLLRHIKL, the “log2 fold change of degron read counts” value was -2.42.

Turning to FHCEQCGAGFTQKGNLLRHIKL, the “log2 fold change of degron read counts” value is -2.43.

With FGCEICGAQFTQKGNLLRHIKL, the “log2 fold change of degron read counts” value was -1.81.

As for FICPQCGAEFTQKGNLLRHIKL, the “log2 fold change of degron read counts” value is -2.08.

For the sequence FCCEICGHIFTQKGNLLRHIKL, the “log2 fold change of degron read counts” value is -0.468.

With FGCNQCGHAFTQKGNLLRHIKL, the “log2 fold change of degron read counts” value came out at 0.898.

For FRCNICGAGFTQKGNLLRHIKL, the “log2 fold change of degron read counts” value was -0.541.

Take FICDQCGAYFTQKGNLLRHIKL: the “log2 fold change of degron read counts” value was -0.754.
